# Assay results: the supplement of paper PMC8728848
# The list shows a part of the results.
# Assays:
# Experiment in all cases: glycan array binding signal (z-score within array); higher = stronger binding
# Details in all cases: glycan notation: IUPAC condensed, linker removed
# [1] = molecular target: Fuc(a1-3)GlcNAc
# Summary of the method: (§1)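 Columns mapping to the same glycan were averaged after glycan names were converted to IUPAC-condensed notation. The data come from 3228 arrays in the Consortium for Functional Glycomics database, limited to those with an available protein sequence. Binding is reported as a within-array Z-score averaged across arrays of one protein sequence and across linkers.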
# [2] = molecular target: Fuc(a1-3)[Gal(b1-4)]Glc6S
# Summary of the method: as §1
# [3] = molecular target: Fuc(a1-3)[Gal(b1-4)]GlcNAc
# Summary of the method: as §1
# [4] = molecular target: Fuc(a1-3)[Gal(b1-4)]GlcNAc(b1-2)Man
# Summary of the method: as §1
# [5] = molecular target: Fuc(a1-3)[Gal(b1-4)]GlcNAc(b1-2)Man(a1-3)[Fuc(a1-3)[Gal(b1-4)]GlcNAc(b1-2)Man(a1-6)]Man(b1-4)GlcNAc(b1-4)GlcNAc
# Summary of the method: as §1
# [6] = molecular target: Fuc(a1-3)[Gal(b1-4)]GlcNAc(b1-2)Man(a1-3)[Fuc(a1-3)[Gal(b1-4)]GlcNAc(b1-2)Man(a1-6)]Man(b1-4)GlcNAc(b1-4)[Fuc(a1-6)]GlcNAc
# Summary of the method: as §1
# [7] = molecular target: Fuc(a1-3)[Gal(b1-4)]GlcNAc(b1-3)Gal(b1-3)[Fuc(a1-4)]GlcNAc
# Summary of the method: as §1
# [8] = molecular target: Fuc(a1-3)[Gal(b1-4)]GlcNAc(b1-3)Gal(b1-4)[Fuc(a1-3)]GlcNAc
# Summary of the method: as §1
# [9] = molecular target: Fuc(a1-3)[Gal(b1-4)]GlcNAc(b1-3)Gal(b1-4)[Fuc(a1-3)]GlcNAc(b1-3)Gal(b1-4)[Fuc(a1-3)]GlcNAc
# Summary of the method: as §1
# [10] = molecular target: Fuc(a1-3)[Gal(b1-4)]GlcNAc(b1-3)GalNAc
# Summary of the method: as §1
# [11] = molecular target: Fuc(a1-3)[Gal(b1-4)]GlcNAc(b1-6)GalNAc
# Summary of the method: as §1
# [12] = molecular target: Fuc(a1-3)[Gal(b1-4)]GlcNAc(b1-6)[Gal(b1-3)GlcNAc(b1-3)]Gal(b1-4)Glc
# Summary of the method: as §1
# [13] = molecular target: Fuc(a1-3)[Gal(b1-4)]GlcNAc6S
# Summary of the method: as §1
# [14] = molecular target: Fuc(a1-3)[Gal3S(b1-4)]Glc
# Summary of the method: as §1
# [15] = molecular target: Fuc(a1-3)[Gal3S(b1-4)]GlcNAc
# Summary of the method: as §1
# [16] = molecular target: Fuc(a1-3)[Gal3S(b1-4)]GlcNAc6S
# Summary of the method: as §1
# [17] = molecular target: Fuc(a1-3)[GalNAc(b1-4)]GlcNAc
# Summary of the method: as §1
# [18] = molecular target: Fuc(a1-3)[GalNAc(b1-4)]GlcNAc6S
# Summary of the method: as §1
# [19] = molecular target: Fuc(a1-4)GlcNAc
# Summary of the method: as §1
# [20] = molecular target: Fuc(b1-3)GlcNAc
# Summary of the method: as §1
# [21] = molecular target: Gal(a1-2)Gal
# Summary of the method: as §1
# [22] = molecular target: Gal(a1-3)Gal
# Summary of the method: as §1
# [23] = molecular target: Gal(a1-3)Gal(b1-3)GlcNAc
# Summary of the method: as §1
# [24] = molecular target: Gal(a1-3)Gal(b1-3)GlcNAc(b1-2)Man
# Summary of the method: as §1
# [25] = molecular target: Gal(a1-3)Gal(b1-3)GlcNAc(b1-2)Man(a1-3)[Gal(a1-3)Gal(b1-3)GlcNAc(b1-2)Man(a1-6)]Man(b1-4)GlcNAc(b1-4)GlcNAc
# Summary of the method: as §1
# [26] = molecular target: Gal(a1-3)Gal(b1-3)GlcNAc(b1-3)GalNAc
# Summary of the method: as §1
# [27] = molecular target: Gal(a1-3)Gal(b1-3)GlcNAc(b1-6)GalNAc
# Summary of the method: as §1
# [28] = molecular target: Gal(a1-3)Gal(b1-3)[Fuc(a1-4)]GlcNAc(b1-2)Man(a1-3)[Gal(a1-3)Gal(b1-3)[Fuc(a1-4)]GlcNAc(b1-2)Man(a1-6)]Man(b1-4)GlcNAc(b1-4)GlcNAc
# Summary of the method: as §1
# [29] = molecular target: Gal(a1-3)Gal(b1-4)Glc
# Summary of the method: as §1
# [30] = molecular target: Gal(a1-3)Gal(b1-4)GlcNAc
# Summary of the method: as §1
# [31] = molecular target: Gal(a1-3)Gal(b1-4)GlcNAc(b1-2)Man
# Summary of the method: as §1
# [32] = molecular target: Gal(a1-3)Gal(b1-4)GlcNAc(b1-2)Man(a1-3)[Gal(a1-3)Gal(b1-4)GlcNAc(b1-2)Man(a1-6)]Man(b1-4)GlcNAc(b1-4)GlcNAc
# Summary of the method: as §1
# [33] = molecular target: Gal(a1-3)Gal(b1-4)GlcNAc(b1-3)GalNAc
# Summary of the method: as §1
# [34] = molecular target: Gal(a1-3)Gal(b1-4)GlcNAc(b1-6)GalNAc
# Summary of the method: as §1
# [35] = molecular target: Gal(a1-3)Gal(b1-4)[Fuc(a1-3)]GlcNAc
# Summary of the method: as §1
# [36] = molecular target: Gal(a1-3)Gal(b1-4)[Fuc(a1-3)]GlcNAc(b1-2)Man(a1-3)[Gal(a1-3)Gal(b1-4)[Fuc(a1-3)]GlcNAc(b1-2)Man(a1-6)]Man(b1-4)GlcNAc(b1-4)GlcNAc
# Summary of the method: as §1
# [37] = molecular target: Gal(a1-3)GalNAc
# Summary of the method: as §1
binder,measurement,setting,value
Cohesin-mDC-ASGPR (Macaca mulatta) (protein) LDITSHHHHHHDDLDAVRIKVDTVNAKPGDTVRIPVRFSGIPSKGIANCDFVYSYDPNVLEIIEIEPGDIIVDPNPDKSFDTAVYPDRKIIVFLFAEDSGTGAYAITKDGVFATIVAKVKEGAPNGLSVIKFVEVGGFANNDLVEQKTQFFDGGVNVGDTTEPATPTTPVTTPTTTDDLDAASSQNSKFQRDLVTLRTDFSNFTSNTVAEIQALTSQGSSVEEMIASLKAEVEVIKQEQQAVHSEMLLRVQRLMQDLNKLTCQVATLKNNASTERTCCPVNWVEHQDSCYWFSRSGMPWAEAEKHCQLENAHLVVINSREEQNFVQEHLSFAYTWMGLSDREGAWKWVDGTDYETGFQNWKPGQPDDWQGHGLGGGEDCAHFHPDGRWNDDVCQRPYYWVCEAGLTQASQESH,glycan array binding signal (z-score),[1],-0.404
same,glycan array binding signal (z-score),[2],-0.399
same,glycan array binding signal (z-score),[3],-0.384
same,glycan array binding signal (z-score),[4],-0.385
same,glycan array binding signal (z-score),[5],-0.391
same,glycan array binding signal (z-score),[6],-0.416
same,glycan array binding signal (z-score),[7],-0.396
same,glycan array binding signal (z-score),[8],-0.359
same,glycan array binding signal (z-score),[9],-0.414
same,glycan array binding signal (z-score),[10],-0.392
same,glycan array binding signal (z-score),[11],1.97
same,glycan array binding signal (z-score),[12],-0.425
same,glycan array binding signal (z-score),[13],-0.397
same,glycan array binding signal (z-score),[14],-0.346
same,glycan array binding signal (z-score),[15],-0.393
same,glycan array binding signal (z-score),[16],-0.39
same,glycan array binding signal (z-score),[17],2.58
same,glycan array binding signal (z-score),[18],3.4
same,glycan array binding signal (z-score),[19],-0.418
same,glycan array binding signal (z-score),[20],-0.391
same,glycan array binding signal (z-score),[21],-0.392
same,glycan array binding signal (z-score),[22],-0.427
same,glycan array binding signal (z-score),[23],-0.213
same,glycan array binding signal (z-score),[24],-0.431
same,glycan array binding signal (z-score),[25],-0.322
same,glycan array binding signal (z-score),[26],-0.334
same,glycan array binding signal (z-score),[27],2.66
same,glycan array binding signal (z-score),[28],-0.329
same,glycan array binding signal (z-score),[29],-0.402
same,glycan array binding signal (z-score),[30],-0.393
same,glycan array binding signal (z-score),[31],-0.326
same,glycan array binding signal (z-score),[32],-0.388
same,glycan array binding signal (z-score),[33],-0.414
same,glycan array binding signal (z-score),[34],2.57
same,glycan array binding signal (z-score),[35],-0.372
same,glycan array binding signal (z-score),[36],-0.318
same,glycan array binding signal (z-score),[37],-0.303
